# Experimental data reported in PubChem BioAssay AID485294 (National Center for Advancing Translational Sciences (NCATS), 2010).
# The campaign covered roughly 370,000 compounds. About 150 (0.041%) were called active. Inconclusive results, whose numbers are uncertain, are shown with a selection of clear calls. The call rests on the fitted dose curve; in most records, active means well fitted inhibition curve with a large enough effect; inconclusive means small, poorly fitted or top-dose-only effect; inactive means flat fitted curve, though single readings scatter. No potency is given beside an inconclusive call; the fits are too rough.
# Target: Beta-lactamase (Escherichia coli (strain K12)) (UniProt P00811)
# Assay: qHTS Inhibitors of AmpC Beta-Lactamase (assay with detergent); further: nearly all actives have a fitted effect of over 25% in size;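 on activity change, negative = inhibition: 0% = no-compound wells and -100% = no-enzyme wells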
# Details: AmpC hydrolysis of nitrocefin, absorbance 480 nm, 0.01% Triton; activity change, negative = inhibition: at 114 µM (top of the series)
# Procedure, shortened: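 AmpC (5.3 nM in the dispensed reagent) in 20 mM phosphate pH 7.0 with 0.01% (detergent screen) or 0.0001% Triton X-100 was preincubated with compounds for 15 min at room temperature. Nitrocefin was then added from an 800 uM solution, and hydrolysis was followed at 480 nm.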
# Potency means the concentration at half of the fitted maximal effect; tags describe the fitted curve by direction and shape.
# Sequence of UniProt P00811 (P00811 whole entry, looked up): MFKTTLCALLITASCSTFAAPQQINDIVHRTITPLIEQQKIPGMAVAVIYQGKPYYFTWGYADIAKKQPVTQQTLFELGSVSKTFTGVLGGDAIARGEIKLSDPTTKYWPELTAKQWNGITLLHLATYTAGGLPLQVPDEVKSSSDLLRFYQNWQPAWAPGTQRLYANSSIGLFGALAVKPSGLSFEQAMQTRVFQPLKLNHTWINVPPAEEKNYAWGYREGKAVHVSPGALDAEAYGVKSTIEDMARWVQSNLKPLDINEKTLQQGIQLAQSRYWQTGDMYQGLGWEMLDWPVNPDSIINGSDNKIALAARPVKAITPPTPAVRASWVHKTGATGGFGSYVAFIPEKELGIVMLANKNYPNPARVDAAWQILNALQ
Compound,"activity change, negative = inhibition",Potency
Cc1ccc(Cc2nnc(SCC(=O)Nc3ccccc3)n(N)c2=O)cc1,inactive: -13.2%,
COc1ccc(N(C(C)C(=O)N2CCCC2)S(C)(=O)=O)cc1 (centres undefined),,"inconclusive [inhibitor, full curve, poor fit]"
CC1CCN(Cc2c(C(=O)N/N=C/c3cc(Br)ccc3O)nnn2-c2nonc2N)CC1,,"inconclusive [inhibitor, full curve, poor fit]"
Cc1ccn2cc(CNS(=O)(=O)c3ccc(Cl)s3)nc2c1,,"inconclusive [inhibitor, full curve, poor fit]"
C=CCc1c(C)nc(SC)nc1Nc1ccc(C(C)=O)cc1,,"inconclusive [inhibitor, full curve, poor fit]"
O=C(c1ccccc1F)n1c2c(c3ccccc31)CCCC2,,"inconclusive [inhibitor, single point]"
CCOc1ccc2nc(/N=C/c3c(C)[nH]n(-c4ccccc4)c3=O)sc2c1,,"inconclusive [inhibitor, full curve, poor fit]"
Cc1ccc(-n2c(=O)c3c4c(sc3n(CC(=O)C(C)(C)C)c2=O)CCCCC4)cc1C,inactive: -2.51%,
COc1ccc(/C=C\C(=O)c2c(O)ccc3c(C)cc(=O)oc23)cc1,inactive: 4%,
O=C(COc1ccc(Br)cc1)c1ccc2c(c1)CCCC2,,"inconclusive [inhibitor, partial curve]"
CN1CCN(C(=O)c2cc(COc3c(F)cccc3F)on2)CC1c1ccccc1 (centres undefined),inactive: 1.8%,
C=CCn1c(Br)nc2c1c(=O)n(C)c(=O)n2C,,"inconclusive [inhibitor, full curve, poor fit]"
COc1cc(C(=O)N=c2sccn2C)c([N+](=O)[O-])cc1OC,inactive: 0.921%,
CCOc1ccc(-c2cc3cc(OC)c(OC)cc3c(C)n2)cc1,,"inconclusive [inhibitor, full curve, poor fit]"
CCOc1ccc(NC(=O)CN(C)C(=O)c2cc(-c3ccc(OC)cc3)nc3ccccc23)cc1OCC,,"inconclusive [inhibitor, full curve, poor fit]"
COc1cc(/C=N\Nc2nc3ccccc3o2)cc(OC)c1OC,,"inconclusive [inhibitor, full curve, poor fit]"
Cc1[nH]nc(N=Cc2c(O)n(C)c(=O)n(C)c2=O)c1-c1ccccc1,,"inconclusive [inhibitor, full curve, poor fit]"
Cc1nc2cccnc2n1-c1cccc(C(=O)NCc2cccc(Cl)c2)c1,inactive: -4.28%,
O=C(COc1ccc(Br)cc1Br)NC1CCS(=O)(=O)C1 (centres undefined),,"inconclusive [inhibitor, full curve, poor fit]"
